PubChem BioAssay AID463173 (ICCB-Longwood Screening Facility, Harvard Medical School, 2010)
Out of some 52,000 compounds screened, about 1,700 (3.3%) were called active. Rule as the data show it: active = survival mostly below about 52% (no sharp cut-off); inactive = mostly above about 56%. Some of the results follow.

tested on: Wild type; experiment: growth inhibition of S. aureus wild type versus tarO mutant, primary screen, teichoic acid synthesis inhibitors, RN4220, OD600 (AID 463173); details: S. aureus RN4220 wild type/DeltatarO growth, OD600, 18 h, stronger effect = lower value, screened at 18.75 µg/mL (by protocol)

Compound | survival
Cc1ccc(N2CCN(Cc3nnc(-c4ccccc4F)o3)CC2)c(C)c1 | active: 15%
CSc1ccc(/C=C/c2nc3ccccc3n2S(=O)(=O)c2ccc(Br)cc2)cc1 | inactive: 60%
CC(=O)N1CCc2cc(Br)cc(S(=O)(=O)NCCc3cccc(C)c3)c21 | inactive: 78%
CS(=O)(=O)N(CC(=O)Nc1cccnc1)c1ccc(Cl)cc1 | inactive: 85%
CCOC(=O)c1c(C)[nH]c(C)c1S(=O)(=O)N1CCCC(C(=O)Nc2cccc(CC)c2)C1 (configuration not stated) | inactive: 87%
COc1cccc(NC(=O)/C(C#N)=C/c2c(C)n(Cc3ccccc3)c3ccccc23)c1 | inactive: 80%
CCOc1ccc(NC(=O)CCc2c(C)nc3nc(-c4cc(OC)cc(OC)c4)nn3c2C)cc1 | inactive: 88%
COc1ccc(-c2[nH]c3c(c2-c2c(-n4cccc4)n(C)c(=O)[nH]c2=O)c(=O)[nH]c(=O)n3C)cc1F | inactive: 84%
COc1ccccc1Nc1nc(N)nc(N)c1S(=O)(=O)c1ccccc1 | inactive: 106%
COc1ccc(-n2nnc(-c3nsc(NC(=O)c4cccc(C)c4)n3)c2C)cc1OC | inactive: 78%
O=C(Nc1ccc(Cl)c(C(F)(F)F)c1)c1nc2ccccc2nc1N1CCCCC1 | inactive: 99%
COc1cc(C(=O)OCn2c(=O)oc3ccccc32)cc(OC)c1OC | inactive: 101%
Fc1ccc(C(NCCc2ccc(Cl)cc2)c2nnc(-c3ccccc3Cl)o2)cc1 (configuration not stated) | active: 11%
COCCCNc1nc(CC(C)C)nc2c1nnn2Cc1ccccc1 | inactive: 109%
CSc1ncc(Cl)c(C(=O)N(C)c2ccccc2)n1 | inactive: 111%
CCN1CCN(c2ncc3c(n2)CCN(Cc2cccc(F)c2F)C3)CC1 | inactive: 56%
Cn1c(SCC(=O)Nc2nc3ccccc3s2)ncc(C(=O)Nc2ccc(Cl)cc2)c1=O | inactive: 77%
CCOCCCNC(=O)c1cn(CC(C)C)c(=O)c2c1c1ccccc1n2C | inactive: 87%
COc1cccc(NC(=O)Cn2nnc(C(=O)NCc3ccc4c(c3)OCO4)c2N)c1 | inactive: 81%
N#CC(C#N)=Cc1ccc(-c2cccc(C(F)(F)F)c2)o1 | inactive: 122%
COC(=O)c1ccccc1NC(=O)c1nn(C)c2c1COc1ccccc1-2 | inactive: 89%
Cc1cccn2c(=O)c3cc(C#N)c(=O)n(-c4nnc(SCc5ccc(F)cc5)s4)c3nc12 | inactive: 127%
CN(C)N1C(=O)CC(n2cnc3ccccc32)C1=O (configuration not stated) | inactive: 115%

Compound | survival
Cc1cc(C)c(NC(=O)CSc2nc(=O)n(Cc3cccnc3)c3c2CCC3)c(C)c1 | inactive: 126%
COc1ccccc1Nc1ncc2c(n1)CCN(Cc1cc(F)cc(F)c1)C2 | inactive: 82%
COc1ccc(N2CCN(C3(c4ccccc4)C(=O)c4ccccc4C3=O)CC2)cc1 | inactive: 92%
Cc1ccc(Cn2c(CO)cnc2SCC(=O)NCc2ccccc2Cl)cc1 | inactive: 80%
Cc1ccc(Cl)cc1N(C)C(=O)c1cc2c(Cl)nc3ccccc3c2s1 | inactive: 70%
Cc1cc(C)c2nc(NCCNC(=O)C3CCCCC3)c(C#N)cc2c1 | inactive: 101%
CCCCCCNC(=O)c1c[nH]c2ccc(S(=O)(=O)N(C)c3ccc(C(C)C)cc3)cc2c1=O | inactive: 74%
N#C/C(=C/c1ccccc1Cl)c1nc2ccccc2c(=O)[nH]1 | inactive: 65%
Cc1nc2ccccn2c1C(=O)NC1CCCC1 | inactive: 103%
O=C(C1CCC(Cn2c(=O)c3sccc3n(Cc3cccc(F)c3)c2=O)CC1)N1CCOCC1 (configuration not stated) | inactive: 65%
C=CCOc1c(Br)cc(CNCCCN2CCOCC2)cc1OC | inactive: 104%
CC(=O)Nc1ccc(Nc2nc3c(S(=O)(=O)c4cc(C)ccc4C)nnn3c3ccsc23)cc1 | inactive: 98%
Cc1cc2nn(-c3ccc(F)cc3)nc2cc1NC(=O)c1cccc([N+](=O)[O-])c1C | inactive: 75%
COc1cccc(OC(=O)CSc2nnc(-c3cccs3)o2)c1 | inactive: 117%
Cc1cccc(C(=O)Nc2cc3nn(-c4ccc(C(C)C)cc4)nc3cc2C)c1 | inactive: 65%
COC(=O)c1ccc(Nc2nc(-c3ccccc3Cl)nc3ccccc23)cc1 | inactive: 36%
Clc1cccc(-c2nc3ccccn3c2Nc2ccc3c(c2)OCCO3)c1 | inactive: 77%
COc1ccc(N2C(=O)CSC23C(=O)N(CC(=O)Nc2ccccc2F)c2ccccc23)cc1 (configuration not stated) | inactive: 126%
Cc1cc(OC(C)C(=O)N2CCC(c3nc4ccccc4o3)CC2)ccc1Cl (configuration not stated) | inactive: 53%
Cc1ccc(CSCCNC(=O)C2CCN(S(=O)(=O)Cc3ccccc3)CC2)cc1 | inactive: 105%
COc1cccc(CNC(=O)Cn2nc(-c3ccc(C)cc3)ccc2=O)c1 | inactive: 59%
COc1ccccc1NC(=O)CSc1ccc(-c2ccccn2)nn1 | inactive: 85%
Cc1ccc(N(C)C(CNS(=O)(=O)c2ccccc2)c2ccccc2)cc1 (configuration not stated) | inactive: 93%

Compound | survival
CCCNC(=O)C1CCN(C(=O)N2CC(C)Oc3ccccc32)CC1 (configuration not stated) | inactive: 85%
CCn1ccc2cc(S(=O)(=O)N3CCCN(C(=O)Nc4cccc(SC)c4)CC3)ccc21 | inactive: 60%
Cc1ccc(NC(=O)Cn2cc(C(=O)c3ccco3)c3ccccc32)cc1C | inactive: 59%
CCCCN(C)S(=O)(=O)c1ccc(NC2=NS(=O)(=O)c3ccccc32)cc1 | inactive: 82%
COc1ccc(-n2ccnc2SCC(=O)Nc2cccc(OC)c2)cc1 | inactive: 120%
Cc1cc2oc(C(=O)Nc3ccc(S(=O)(=O)N4CCC(C)CC4)cc3)cc(=O)c2cc1C | inactive: 93%
Cc1ccc(N2C(=O)CSC2=S)c(C)c1 | inactive: 106%
CC(C)NC(=O)Cc1ccc(Br)cc1 | inactive: 103%
Cc1ccc(-n2nc3c(N4CCC(C(=O)NC5CCCCC5)CC4)nnc(C)c3c2C)cc1 | inactive: 71%
C=CCn1c(O)c(CN2CCOCC2)c(C)c(C#N)c1=O | inactive: 104%
COc1ccc(-n2ncc(C(=O)N3CCN(C(=O)c4ccco4)CC3)c2C2CCN(C(=O)OC(C)(C)C)CC2)cc1 | inactive: 68%
CC(C)Cc1ccc(S(=O)(=O)NCc2nc3cccnc3n2Cc2ccccc2)cc1 | inactive: 120%
O=C1c2[nH]nc(-c3ccccc3O)c2C(c2cccc(O)c2)N1Cc1cccnc1 (configuration not stated) | inactive: 87%
COc1ccc(-c2ccc(CNCCCSc3nnnn3C)o2)cc1Cl | inactive: 83%
CCc1ccc(/C=C(/C#N)C(=O)OC)s1 | inactive: 107%
CC1(C)CC(NCc2ccccc2)CCO1 (configuration not stated) | inactive: 104%
CCCCCOc1ccccc1CN1C(=O)C(=O)c2cc(C)ccc21 | inactive: 105%
O=C(O)CSCC(=O)Nc1cccc(C(F)(F)F)c1 | inactive: 108%
COc1ccc(NC(=O)c2c(NCc3ccc(OC)c(OC)c3OC)sc3c2CCC3)c(OC)c1 | inactive: 92%
Cc1ccc(/C=C/C(=O)N2CCC(c3nc4ccccc4o3)CC2)cc1 | inactive: 98%
Cc1onc(-c2ccccc2)c1C(=O)NC(C)C | inactive: 111%
Cc1ccc(N(C)S(=O)(=O)c2ccc(-c3coc(C)n3)cc2)cc1 | inactive: 70%
COc1ccccc1N1CCN(CCCNC(=O)c2nnc(Cc3ccc(F)cc3Cl)o2)CC1 | inactive: 79%

Compound | survival
Cc1ccc(NC(=O)CN2C(=O)COc3ccc(S(=O)(=O)N4CCOCC4)cc32)cc1N(C)C | inactive: 101%
Cc1cccc(-c2noc(-c3ccc(NCc4ccccc4)c([N+](=O)[O-])c3)n2)c1 | inactive: 81%
CC1=C(c2ccc(C)c(C)c2)S(=O)(=O)N=C1N1CCC(C(=O)NCc2ccccc2C)CC1 | inactive: 64%
Cc1cc(C)c2oc(-c3ccc(NC(=O)COc4ccccc4C)cc3)nc2c1 | inactive: 78%
Fc1ccc(CSc2nncn3c2cc2occc23)c(Cl)c1 | inactive: 88%
CCOc1ccc(CCNC(=O)c2cc3sccc3n2CC)cc1OCC | inactive: 88%
CCc1nc2ccc(C(=O)N3CCN(c4cc(C)ccc4C)CC3)cc2nc1CC | inactive: 65%
CC1=C(C(N)=O)C(c2cccc(Br)c2)n2nc(SCc3ccccc3Cl)nc2N1 (configuration not stated) | inactive: 89%
COc1cc(C2C(C(=O)Nc3ccc(Cl)cc3)=C(C)Nc3nc(SC)nn32)cc(OC)c1OC (configuration not stated) | inactive: 80%
COc1cc(CN(C(=O)Nc2cccc(Cl)c2)c2ccccn2)cc(OC)c1OC | inactive: 82%
COC(=O)c1nnn(CC(=O)Nc2c(C)cccc2C)c1N | inactive: 66%
CC(C)CCNC(=O)c1ccc2nc(CCc3ccccc3)oc2c1 | inactive: 22%
Cc1ccc(C(=O)NCC(c2cccs2)S(=O)(=O)c2ccccc2)cc1C (configuration not stated) | inactive: 140%
S=c1[nH]nc(CNc2cccc(Cl)c2)o1 | inactive: 115%
CC(C)Nc1nc2c(S(=O)(=O)c3cccc(Cl)c3)nnn2c2ccsc12 | inactive: 92%
CC(=O)c1cccc(NC(=O)CCn2nc(C)c(S(=O)(=O)N(C)C)c2C)c1 | inactive: 78%
CCOC(=O)c1c(C)oc2nc(C)nc(NCCc3ccc(OC)c(OC)c3)c12 | inactive: 70%
CCCCC(CC)CNC(=O)CCCCn1c(=O)[nH]c2ccsc2c1=O (configuration not stated) | inactive: 77%
COC(=O)c1sc(N2C(=O)c3oc4ccc(C)cc4c(=O)c3C2c2ccc(O)c(OC)c2)nc1C (configuration not stated) | inactive: 150%
COc1ccc(OCc2nnc(SCC(=O)NCc3ccco3)o2)cc1 | inactive: 92%
COC(=O)c1ccc(C(=O)OC)c(NC(=O)c2c(-c3ccccc3)noc2C)c1 | inactive: 119%
COc1ccc(CCNc2nc(SCc3ccccc3F)nc3ccccc23)cc1OC | inactive: 87%
CN(c1ccc(C(=O)N2CCc3ccccc3C2)cc1)S(C)(=O)=O | inactive: 116%
